Over roughly 110,000 compounds, “z-score” has its median near -0.1; the highest 2% begin near 2. The list shows a part of the results. Active and inactive are the calls of the source.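 The calls were made as follows: active = z-score in the third read window above 3 or below -3; inactive = the rest.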
biological target: Metabotropic glutamate receptor 8 (Rattus norvegicus) (UniProt P70579); assay: mGluR8 Gi/Go-coupled signaling modulation – cell-based, rat, thallium flux, HTS, primary screen (AID 488969); conditions: HEK293 rat mGluR8, GIRK (G protein-gated inwardly rectifying potassium channel) thallium flux, FluoZin2; at 10 µM; stronger effect = higher value; submaximal glutamate (EC20) added with thallium
Chain of UniProt P70579 (P70579 whole entry, looked up): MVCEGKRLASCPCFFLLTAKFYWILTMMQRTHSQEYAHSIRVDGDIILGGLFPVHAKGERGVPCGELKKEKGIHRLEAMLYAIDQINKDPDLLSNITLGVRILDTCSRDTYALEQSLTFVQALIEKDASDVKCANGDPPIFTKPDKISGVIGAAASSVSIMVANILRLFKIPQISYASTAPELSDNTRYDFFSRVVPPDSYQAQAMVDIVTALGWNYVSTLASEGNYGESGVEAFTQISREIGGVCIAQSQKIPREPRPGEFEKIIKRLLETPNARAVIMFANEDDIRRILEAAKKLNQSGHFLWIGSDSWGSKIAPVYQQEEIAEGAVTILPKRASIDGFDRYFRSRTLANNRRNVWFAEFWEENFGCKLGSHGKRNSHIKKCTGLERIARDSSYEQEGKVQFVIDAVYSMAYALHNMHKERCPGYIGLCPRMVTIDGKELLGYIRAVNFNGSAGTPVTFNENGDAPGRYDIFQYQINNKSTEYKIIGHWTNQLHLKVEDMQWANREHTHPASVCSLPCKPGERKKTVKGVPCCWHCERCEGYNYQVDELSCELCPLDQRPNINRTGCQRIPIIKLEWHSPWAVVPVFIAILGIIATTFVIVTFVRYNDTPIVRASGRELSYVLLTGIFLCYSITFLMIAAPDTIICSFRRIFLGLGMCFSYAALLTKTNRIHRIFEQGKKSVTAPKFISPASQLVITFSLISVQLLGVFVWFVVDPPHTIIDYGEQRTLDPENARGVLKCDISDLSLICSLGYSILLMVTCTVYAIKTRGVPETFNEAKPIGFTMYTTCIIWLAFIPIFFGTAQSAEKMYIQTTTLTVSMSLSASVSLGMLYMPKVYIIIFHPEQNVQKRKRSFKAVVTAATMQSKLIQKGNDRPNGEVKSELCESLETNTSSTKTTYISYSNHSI

Row | Compound | z-score
1 | Cc1ccc(-c2nn(CCC(=O)O)cc2CCC(=O)O)cc1 | -0.00395
2 | Cc1ccc2c(c1)nnn2C1CCN(C(=O)C23CC4CC(CC(C4)C2)C3)CC1 | 0.295
3 | COc1ccc2c(=O)c(-c3nc(C)cs3)coc2c1 | 0.0604
4 | COC(=O)C1=C(C)N(c2ccc(Cl)cc2)/C(=C/c2cccs2)C1=O | 0.492
5 | CCOCCc1nnc(NC(=O)c2cc(OC)c(OC)c(OC)c2)s1 | -0.0593
6 | Cc1onc(-c2c(Cl)cccc2Cl)c1C(=O)N/N=C(\N)COc1ccc(Cl)cc1 | 0.0141
7 | CCOC(=O)CNC(=O)Cn1cnc2sc(C)c(S(=O)(=O)N3CCC(C)CC3)c2c1=O | -0.342
8 | Cc1ccc(C(=O)NCC(=O)N2CCN(c3ncccn3)CC2)s1 | -0.199
9 | O=C(c1cccc(F)c1F)N1CCCC1 | 0.669
10 | CCOC(=O)c1ccccc1N/C=C1\CCCC1=O | -0.626
11 | COc1ccc(-n2c(SCCC(=O)O)nnc2-c2ccncc2)cc1 | 0.658
12 | CCCCNC(=O)OC1CCS(=O)(=O)C1 (stereo not given) | 0.0952
13 | CCC(C)(C)NC(=O)C(c1ccccc1F)N(C(=O)c1ccn[nH]1)c1ccccc1 (stereo not given) | 0.203
14 | CN(C)c1ccc(NC(=O)CN2C(=O)CC(c3ccccc3)=Nc3ccccc32)cc1 | 0.236
15 | COc1ccc(CCNC(=O)c2cccnc2)cc1 | 0.502
16 | CN(C(=O)C1CCOC1)c1nnc(-c2cccnc2)s1 (stereo not given) | -0.116
17 | N#Cc1nc(COc2ccccc2Cl)oc1NCc1ccc(F)cc1 | -0.0948
18 | N/C(=N\OC(=O)c1ccccc1Cl)c1ccccn1 | -0.325
19 | COc1ccc(S(=O)(=O)Nc2ccc3c(c2)OCO3)cc1C | -0.308
20 | CCCCNC(=O)C1CCN(Cc2ccccn2)CC1 | -0.151
21 | Cc1cc2ncn(C(=O)N3CCOCC3)c2cc1C | 0.0803
22 | COc1ccc2nc(NC(=O)C3CCN(S(=O)(=O)c4cccs4)CC3)sc2c1 | -0.128
23 | CC1CCN(C(=O)CSc2nnc(Cc3cc(=O)[nH]c(=O)[nH]3)n2-c2ccc(Cl)cc2)CC1 | -0.349
24 | Cc1ccc(S(=O)(=O)CCc2nnc(NC(=O)c3ccccn3)s2)cc1 | 0.0225
25 | Clc1ccc(Nc2nc(-c3cccs3)cs2)nc1 | -0.433
26 | Cn1[nH]c(=O)c(Cl)c(Cl)c1=O | -0.305
27 | COc1ccc(C(=O)Nc2ccccn2)cc1 | -0.119
28 | CC1=NN(C(=O)c2ccc(Cn3cc([N+](=O)[O-])cn3)cc2)C(O)(C(F)(F)F)C1 (stereo not given) | 0.0166

Row | Compound | z-score
29 | O=C(Nc1cccnc1)c1cc(-c2ccc3c(c2)OCO3)on1 | 0.364
30 | COCCCNC(=S)N(Cc1cccnc1)Cc1ccc(OC)c(OC)c1 | -1.16
31 | Cc1[nH]c2c(C)cccc2c1CCNS(=O)(=O)c1cccc([N+](=O)[O-])c1 | -0.0132
32 | Cc1cccc(OCC(=O)O/N=C(\N)Cc2ccc(Cl)cc2)c1 | 0.608
33 | O=C(NC1CC1)C1CCCN1S(=O)(=O)c1ccc2ccccc2c1 (stereo not given) | -0.112
34 | CCOCCCNC(=O)c1ccc(CS(=O)(=O)Cc2cccc(C)c2)o1 | 0.789
35 | COc1ccc(NC(=O)c2cc(-c3ccccc3Cl)no2)cc1 | -0.224
36 | CCOc1cc(/C=N/NC(=O)COc2cccc(C)c2)ccc1OC(=O)c1cccs1 | -0.0875
37 | Cc1ccc(C(=O)c2ccccc2C(=O)O)s1 | -0.296
38 | COc1ccccc1NC(=O)C(=O)NNC(=O)c1ccco1 | 2.81
39 | Cc1ccc(CCNC(=O)C2CC(c3ccccc3[N+](=O)[O-])=NO2)cc1 (stereo not given) | -0.174
40 | O=C(NC(NC1CCS(=O)(=O)C1)C(Cl)(Cl)Cl)c1ccc(Br)cc1 (stereo not given) | -0.137
41 | O=[N+]([O-])c1cccc2ccc(/C=C/c3ccc(F)cc3)nc12 | -0.262
42 | O=c1[nH]c2c(s1)C(c1ccco1)C1C3CCC(C3)C1S2 (stereo not given) | -0.0669
43 | Cc1cccc(NC(=O)/C=C/c2cccs2)n1 | -0.165
44 | CC(=O)C1=C(C)NC(SCC(=O)c2ccc(Cl)c(Cl)c2)=C(C#N)C1c1ccco1 (stereo not given) | -0.139
45 | Cc1nc2ccccc2c2c1C(=O)N(CCC1=CCCCC1)C2=O | 0.00608
46 | CCOc1ccc(S(=O)(=O)N2CCN(C(=O)c3cc4c(s3)CCCC4)CC2)cc1 | -0.492
47 | Cn1cc([N+](=O)[O-])c(C(=O)Nc2ccc(C(=O)N3CCCCC3)cc2)n1 | -0.328
48 | C=CCN1C(=O)[C@]2(c3ccccc31)C1CCCC=C1C(C#N)=C(N)C2(C#N)C#N (stereo not given in full) | 0.209
49 | Cc1cc(C)c2c(c1)-c1c(ssc1=S)C(C)(C)N2C(=O)CN1C(=O)c2ccccc2C1=O | 0.383
50 | COc1ccc(NC(=O)CSc2nc(N)c3cc4c(nc3n2)CCCC4)c(OC)c1 | -0.625
51 | CC(C)N(C)CCOC(=O)c1ccccc1Cl | -0.145
52 | Cc1cc(NC(=O)c2ccc3c(c2)C(=O)N(C)C3=O)no1 | -0.25
53 | COc1ccccc1C(CC(N)=O)c1ccco1 (stereo not given) | 0.108
54 | CC1CCN(CCn2c(=S)[nH]c3ncccc3c2=O)CC1 | active: 4.47
55 | CCCC(C)C(=O)Nc1nc(C)c(-c2csc(Nc3cc(Cl)ccc3C)n2)s1 (stereo not given) | -0.232
